In paper PMC4336329 (PLoS ONE, 2015):
Out of some 310,000 compounds screened, about 14,000 (4.5%) showed an effect of 50% or more. The effect is printed as a negative number. This is one part of the list.

Target: human ether-à-go-go-related gene (hERG) potassium channel (human, UniProt Q12809)
Test: primary screen, population patch clamp on CHO cells stably expressing hERG
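Note: peak tail current of the secondary pulse compared with the same well before compound.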

Sequence of human ether-à-go-go-related gene (hERG) potassium channel (Q12809 whole entry, looked up): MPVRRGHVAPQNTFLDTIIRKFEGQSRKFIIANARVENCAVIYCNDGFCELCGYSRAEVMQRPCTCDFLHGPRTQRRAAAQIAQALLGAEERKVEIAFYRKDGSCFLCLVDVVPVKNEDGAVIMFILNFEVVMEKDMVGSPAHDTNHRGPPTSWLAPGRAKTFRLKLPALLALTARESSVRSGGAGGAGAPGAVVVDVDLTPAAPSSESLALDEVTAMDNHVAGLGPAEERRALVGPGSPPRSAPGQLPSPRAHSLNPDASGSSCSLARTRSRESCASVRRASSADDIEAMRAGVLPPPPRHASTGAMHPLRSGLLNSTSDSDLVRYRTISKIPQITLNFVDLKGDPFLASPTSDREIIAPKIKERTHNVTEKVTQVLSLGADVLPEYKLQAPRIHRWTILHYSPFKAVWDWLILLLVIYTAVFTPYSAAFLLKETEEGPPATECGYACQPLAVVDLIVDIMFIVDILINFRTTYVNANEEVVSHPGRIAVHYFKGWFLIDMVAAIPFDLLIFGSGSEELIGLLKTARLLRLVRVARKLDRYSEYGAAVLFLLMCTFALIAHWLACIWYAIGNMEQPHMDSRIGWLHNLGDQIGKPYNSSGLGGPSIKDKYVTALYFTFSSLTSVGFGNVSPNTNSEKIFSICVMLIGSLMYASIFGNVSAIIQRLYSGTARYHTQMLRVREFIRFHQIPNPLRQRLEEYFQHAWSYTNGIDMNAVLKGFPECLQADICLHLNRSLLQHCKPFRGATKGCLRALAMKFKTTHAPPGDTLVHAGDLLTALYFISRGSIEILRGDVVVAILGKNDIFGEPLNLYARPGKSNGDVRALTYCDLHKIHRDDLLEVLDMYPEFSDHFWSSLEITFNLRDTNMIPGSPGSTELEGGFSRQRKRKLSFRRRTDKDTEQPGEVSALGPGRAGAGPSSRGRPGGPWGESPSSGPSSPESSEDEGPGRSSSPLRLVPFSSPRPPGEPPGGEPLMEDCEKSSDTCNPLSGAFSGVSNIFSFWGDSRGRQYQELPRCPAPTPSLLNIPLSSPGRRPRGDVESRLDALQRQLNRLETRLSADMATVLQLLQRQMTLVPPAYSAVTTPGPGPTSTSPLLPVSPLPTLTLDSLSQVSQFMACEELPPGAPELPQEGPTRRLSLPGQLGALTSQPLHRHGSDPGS

| SMILES | hERG current change (%, negative = inhibition) at 10uM |
| --- | --- |
| CO/N=C/c1ccc(Oc2ccc(C)cc2)nc1 | 11.1% |
| Cn1c(SCC(=O)N/N=C/c2ccncc2)nc2ccccc21 | -7.69% |
| CC(C)c1ccccc1OCC(=O)Nc1ccccc1C(=O)N1CCOCC1 | -30.4% |
| CN1C(=O)CS(=O)c2ccc(C(=O)NCCC3=CCCCC3)cc21 (stereo not drawn) | 6.39% |
| CCN(CC)CCNC(=O)CCN1N=C(c2ccccc2)CCC1=O | 14.1% |
| Cc1ccc(C)c(NC(=O)C2C3C=CC(O3)C2C(=O)O)c1 (stereo not drawn) | 15.4% |
| CC1(C)Cc2c(sc(/N=C/N3CCOCC3)c2C#N)C(C)(C)N1 | 4.9% |
| COc1ccccc1NC(=O)Nc1nc(CC(=O)Nc2cccc(F)c2)cs1 | -3.26% |
| Cc1ccc(NC(=O)CSc2sc3c(O)cc(=O)[nH]c3c2C#N)cc1C | -2.68% |
| c1ccc(CN2CCOCCOCCOCC2)cc1 | 15.6% |
| CCN(CC)S(=O)(=O)c1cc(Cl)ccc1OC | -0.703% |
| CC(C)C(NS(=O)(=O)c1cccs1)C(=O)NCc1ccccc1 (stereo not drawn) | 17.9% |
| COCCCNC(=S)NC1CCCCC1 | -10.9% |
| Cc1ccnc(NS(=O)(=O)c2ccc(NC(=O)C3CC=CCC3C(=O)O)cc2)n1 (stereo not drawn) | 7.5% |
| S=C(Nc1ccc(Cl)cc1)NC1CC2CCCC(C1)N2C1CCCC1 (stereo not drawn) | -55.5% |
| Cn1c(N)c(C(=O)COC(=O)c2ccc(OC(F)F)cc2)c(=O)n(C)c1=O | -11.8% |
| Cc1[nH]c2c(C(=O)N3CCCC(CCC(=O)NCc4ccccc4F)C3)cccc2c1C (stereo not drawn) | 3.39% |
| CC(C)CSc1nnc2c(n1)[nH]c1ccccc12 | 9.6% |
| O=C(NC1CCS(=O)(=O)C1)c1cccc(S(=O)(=O)N2CCCCCC2)c1 (stereo not drawn) | 1.79% |
| COC(=O)c1cnn(-c2nc3c(C)cccc3s2)c1C | -18.5% |
| O=C(c1ccc2nc(-c3ccccc3)c(-c3ccccc3)nc2c1)N1CCCCC1 | -19.7% |
| O=C(O)c1ccc(CSc2nnc(-c3ccccc3)n2-c2ccccc2)cc1 | 5.45% |
| CON(C)c1nc(NCC(C)C)nc(OCC#N)n1 | -3.4% |

| SMILES | hERG current change (%, negative = inhibition) at 10uM |
| --- | --- |
| O=C(NCCc1ccc(Cl)cc1)C1CCN(C(=O)c2ccc(F)cc2)CC1 | -46.1% |
| COc1ccc(C(C)=O)cc1CSc1nncn1-c1ccccc1 | -31.4% |
| COc1ccc(-c2noc(N3CCC(C(=O)Nc4cc(OC)c(OC)c(OC)c4)CC3)n2)cc1 | -3.06% |
| Cc1ccc(N2C(=O)CSC2c2ccccn2)cc1Cl (stereo not drawn) | 5.85% |
| Cc1ccc(-n2c(-c3ccccc3)nnc2-c2cccs2)cc1 | 23.9% |
| O=C(CSc1nc2ccc(Cl)cc2[nH]1)NC1CCCc2ccccc21 (stereo not drawn) | 16.5% |
| COc1ccc(CCNC(=S)N2CCN(S(=O)(=O)c3ccc(C)cc3)CC2)cc1 | 12.2% |
| CC(/C=N/NC(=O)CSc1n[nH]c(=O)[nH]c1=O)=C\c1ccccc1 | 5.71% |
| COc1ccc(NC(=O)CSc2nnc(-c3cccnc3)o2)cc1 | -10.1% |
| CN1CCN(S(=O)(=O)c2cccc(C(=O)N(Cc3ccccc3)c3ccccc3)c2)CC1 | -19.9% |
| CC(C)(C)OC(=O)NCc1ccc(CNC(=O)c2[nH]cnc2C(=O)N[C@@H](Cc2ccccc2)C(=O)OC(C)(C)C)cc1 | -3.1% |
| Fc1cccc(Cc2noc(CN3CCN(c4cnccn4)CC3)n2)c1 | -10.9% |
| CCOc1ccc(S(=O)(=O)N2CCCCC2)cc1NC(=O)CN1C(=O)NC(C)(c2ccccc2)C1=O (stereo not drawn) | -35.5% |
| COc1cccc(C(=O)N(C)c2nnc(-c3ccncc3)s2)c1 | -4.78% |
| O=C(Nc1ccccc1)c1ccc(S(=O)(=O)NCC2CCCO2)cc1 (stereo not drawn) | 2.12% |
| CC(C)n1c(-c2ccc(N(C)C)cc2)nc2ccccc21 | -44.7% |
| Cc1ccc(NC(=O)COc2ccc(-n3ccnc3)cc2)cc1Cl | -33.6% |
| O=C1C2C3CC(C2C(=O)N1c1cccc(Cl)c1)[C@H](O)C3O (stereo partly drawn) | 9.69% |
| Cc1cc(Cl)ccc1OCC(=O)Nc1ccncc1 | -5.88% |
| CS(=O)(=O)N(CC(=O)Nc1ccccc1Sc1ccccc1)C1CCCCC1 | 4.04% |
| CC(=O)c1nn(-c2cccc(Br)c2)cc1C(=O)c1ccco1 | 6.24% |
| O=C(NCc1ccccn1)C(=O)N/N=C/c1ccccc1O | 12.9% |
